Data on 172 sequences can be found in paper PMC5836133.

Some of the results follow. At the low end of the ranking the order means little.

This assay deals with T1, GST-NbGlk1(82-244).
T1 sequence: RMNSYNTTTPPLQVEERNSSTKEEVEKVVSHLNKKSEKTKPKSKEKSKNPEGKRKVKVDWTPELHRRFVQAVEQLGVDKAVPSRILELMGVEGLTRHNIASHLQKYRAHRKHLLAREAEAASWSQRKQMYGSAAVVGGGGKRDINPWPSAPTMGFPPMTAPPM
Description: protein-binding microarray.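 Note: rank-based score ranging −0.5 to +0.5 with E above 0.45 taken as significant binding.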 The settings on record: NbGlk1 is a Golden2-like transcription factor of Nicotiana benthamiana; high values mean tight binding; most listed sequences are background and not binding sites; double strand, one strand shown.
For the sequence ACACGAAC, the binding signal is -0.187 E-score.

In the case of AAAGAGTG, the binding signal is -0.11 E-score.

AGCACACT: the binding signal is -0.199 E-score.

The sequence ACCTTTAA displayed a binding signal of 0.176 E-score.

As for ATGTACGC, the binding signal is -0.0632 E-score.

As for ATCGTTAA, the binding signal worked out at 0.178 E-score.

Take AGCCGGTG: the binding signal was -0.245 E-score.

On to ATCTCTCC, for which the binding signal came to 0.197 E-score.

With ACGGGGAT, the binding signal turned out to be 0.214 E-score.

For the sequence ATCCACCG, the binding signal came out at 0.125 E-score.

Regarding AGCCCAGC, the binding signal was -0.379 E-score.

For CAAGGTTA, the binding signal was -0.12 E-score.

As to AGGTTTCC, the binding signal is -0.207 E-score.

Turning to ACTCCGCT, the binding signal is -0.229 E-score.

ACAGAGTA: the binding signal is 0.1 E-score.

Regarding CAACTGAA, the binding signal is -0.0297 E-score.

As for ATGACCCC, the binding signal is -0.268 E-score.

In turn, AACTATTG yielded a binding signal of 0.13 E-score.

Regarding ACCGCAGG, the binding signal is -0.193 E-score.

As for CAAATGCC, the binding signal was -0.0934 E-score.

AATCGTAC gave a binding signal of 0.257 E-score.

Take AGACTGAG: the binding signal was -0.082 E-score.

In turn, ATCGGCCC returned a binding signal of 0.0915 E-score.

As for AAACCTGG, the binding signal is -0.206 E-score.

On to ATCTAACC, for which the binding signal was 0.266 E-score.

ACCAGGGT: the binding signal was -0.322 E-score.

In the case of AGCAGTAA, the binding signal is -0.049 E-score.

With CAATCCTG, the binding signal came out at 0.328 E-score.

Turning to AAGGTTCT, the binding signal is -0.176 E-score.

Regarding CAACATCG, the binding signal came out at 0.0129 E-score.

As to CACCAAAC, the binding signal is -0.0638 E-score.

Regarding CACACTCC, the binding signal was -0.0563 E-score.

ACACTACT: the binding signal is -0.062 E-score.

The sequence AATATCAG registered a binding signal of 0.332 E-score.

ACGATCTC gave a binding signal of 0.295 E-score.

Regarding ACACACTC, the binding signal is -0.063 E-score.

Regarding AGGATTAA, the binding signal is -0.117 E-score.

Regarding ATGTGGTC, the binding signal is -0.0694 E-score.

For the sequence CACATCGG, the binding signal was -0.137 E-score.

Sequence ATGGATCG displayed a binding signal of 0.0554 E-score.

Regarding CACGATGC, the binding signal is -0.0964 E-score.

For AGCCTCAG, the binding signal is -0.199 E-score.

ACTCAGTC: the binding signal was -0.137 E-score.

AAATGTAC: the binding signal was -0.164 E-score.

With ACTAGCGG, the binding signal is -0.0505 E-score.

Regarding CACACGAC, the binding signal is -0.201 E-score.

On to ACACTTAG, for which the binding signal is -0.0695 E-score.

Take ACTTAGAA: the binding signal worked out at 0.0395 E-score.

For the sequence AGTACGCA, the binding signal was -0.0533 E-score.

For the sequence CACCTATC, the binding signal is -0.0782 E-score.

AGGACATG: the binding signal is -0.244 E-score.

AATTCGTA: the binding signal is 0.223 E-score.

As to AGATTGTC, the binding signal was determined as 0.394 E-score.

AAATTCGC returned a binding signal of 0.284 E-score.

Turning to AGGAGCCC, the binding signal is -0.373 E-score.

On to ACAGCCAC, for which the binding signal was -0.228 E-score.

Consider AAGTAGGC, for which the binding signal is -0.0687 E-score.

For ACATTCGT, the binding signal is -0.16 E-score.

ACGGTACA: the binding signal is -0.044 E-score.

With AGACTGTG, the binding signal was -0.0371 E-score.

As to AGGGACGC, the binding signal is -0.271 E-score.

ACGTGGTA had a binding signal of 0.00208 E-score.

AAAACGCG: the binding signal came out at 0.129 E-score.

ACGTGTAA displayed a binding signal of 0.0997 E-score.

AACGTGAG: the binding signal came out at 0.029 E-score.

On to ACAGAACA, for which the binding signal is -0.0977 E-score.

ACTTCGCC: the binding signal was -0.148 E-score.

For AGCGGGCG, the binding signal was -0.202 E-score.

For the sequence AGGCTAAG, the binding signal was -0.0896 E-score.

For ATTCCTAA, the binding signal amounted to 0.236 E-score.

Sequence AAACGTCG came in with a binding signal of 0.0499 E-score.

As to CAAGTCTC, the binding signal is -0.194 E-score.

ATGGCTCG: the binding signal was -0.104 E-score.

ATAATTAG came in with a binding signal of 0.0782 E-score.

As for ACGGTTCG, the binding signal is -0.0875 E-score.

Sequence CAACAAAG gave a binding signal of 0.0518 E-score.

Regarding ATTCCTTC, the binding signal was 0.136 E-score.

For ATCATACG, the binding signal was 0.138 E-score.

Turning to ATAGGGAC, the binding signal was -0.127 E-score.

On to AGCGGCGA, for which the binding signal is -0.0164 E-score.

As for AATCGCCA, the binding signal is 0.259 E-score.

Take CAAGTGCC: the binding signal was -0.119 E-score.

For the sequence ACCACGCT, the binding signal is -0.125 E-score.

The sequence ATCACATG returned a binding signal of 0.196 E-score.

ATATTCAG showed a binding signal of 0.277 E-score.

Sequence AATCAGAT returned a binding signal of 0.341 E-score.

CAATCAAG: the binding signal came out at 0.207 E-score.

As to ACACCTAA, the binding signal is -0.0253 E-score.

On to ATGCACAA, for which the binding signal was -0.0196 E-score.

As to ACCGCTTA, the binding signal was -0.172 E-score.

With AAGAGGGT, the binding signal is -0.235 E-score.

For ACACGTCC, the binding signal is -0.211 E-score.

Turning to ATTACCTG, the binding signal is 0.213 E-score.

For AACCCATT, the binding signal is -0.0799 E-score.

Consider ACGTACGT, for which the binding signal was -0.0451 E-score.

In the case of ATTTCCGC, the binding signal worked out at 0.333 E-score.

ATATACAA: the binding signal was determined as 0.212 E-score.

The sequence AGATTAAA came in with a binding signal of 0.0248 E-score.

Regarding ATGAAGTG, the binding signal turned out to be 0.00397 E-score.

For ATGCGTGA, the binding signal was -0.0807 E-score.

On to ACCCCGCT, for which the binding signal was -0.0466 E-score.

The sequence AAACACAA showed a binding signal of 0.0249 E-score.

The sequence ATCCGGTC came in with a binding signal of 0.14 E-score.

Regarding ATAAGGAC, the binding signal is -0.124 E-score.

Take AAGTTTTC: the binding signal is -0.021 E-score.

AGCTGAAA: the binding signal is -0.00169 E-score.

In the case of ACTTAAAA, the binding signal is 0.14 E-score.

Sequence ATCTATTG gave a binding signal of 0.223 E-score.

For the sequence AACCTCTG, the binding signal was -0.185 E-score.

AATACAAA came in with a binding signal of 0.195 E-score.

On to AGTGGATG, for which the binding signal was -0.00283 E-score.

Take AGGGCATC: the binding signal is -0.221 E-score.

AGTGGACA gave a binding signal of 0.0475 E-score.

With AGACCTTG, the binding signal was -0.15 E-score.

On to ATGATGAC, for which the binding signal is -0.0779 E-score.

ACCCCATA: the binding signal was -0.0521 E-score.

For AGCCCTGA, the binding signal is -0.185 E-score.

ACTAACGG registered a binding signal of 0.131 E-score.

For the sequence CAGCGCCA, the binding signal was -0.211 E-score.

As to ACCTGAGG, the binding signal was -0.0697 E-score.

For AAGGCAGA, the binding signal came out at 0.0199 E-score.

AAACGCGT returned a binding signal of 0.0933 E-score.

With CAATAACA, the binding signal is -0.106 E-score.

AGTAGTGA returned a binding signal of 0.0266 E-score.

ATCGTGAA gave a binding signal of 0.166 E-score.

As to ATCATAAC, the binding signal worked out at 0.153 E-score.

With CACGGAGG, the binding signal was -0.212 E-score.

As for AATGTAAG, the binding signal came out at 0.0454 E-score.

Take AGTCAACA: the binding signal was -0.113 E-score.

For AATTGGTG, the binding signal is -0.00175 E-score.

ACTCTGGA: the binding signal is -0.104 E-score.

As for ACGGGTCA, the binding signal is -0.24 E-score.

On to AAATAAAT, for which the binding signal was found to be 0.24 E-score.

Turning to AACGAATA, the binding signal is -0.0108 E-score.

Turning to CACGGACC, the binding signal was -0.234 E-score.

With ACATGGAG, the binding signal is -0.0733 E-score.

On to AGGTGAGG, for which the binding signal is -0.217 E-score.

For ATCCTGGC, the binding signal is 0.244 E-score.

Turning to AAGGTGGC, the binding signal was -0.282 E-score.

On to ACTATTAA, for which the binding signal was -0.0379 E-score.

With AGCCACTG, the binding signal was -0.154 E-score.

Regarding CACTCGAA, the binding signal was -0.0802 E-score.

For the sequence ACACGGCG, the binding signal is -0.139 E-score.

Consider CACTACAA, for which the binding signal was determined as 0.0571 E-score.

In the case of ACGTTTAC, the binding signal amounted to 0.057 E-score.

For AAATGCGT, the binding signal was determined as 0.0868 E-score.

For the sequence ACTTGACT, the binding signal was -0.117 E-score.

On to ATAGTCGA, for which the binding signal is -0.021 E-score.

On to CAACCCAC, for which the binding signal is -0.0345 E-score.

As for AAGAATGC, the binding signal was -0.118 E-score.

In the case of ATCGAGTA, the binding signal was 0.117 E-score.

Regarding CACCGGAC, the binding signal is -0.206 E-score.

AAAAGGGG: the binding signal is -0.0668 E-score.

ACCCAGGA: the binding signal was -0.0808 E-score.

ACGTCCAG: the binding signal was -0.1 E-score.

In the case of AACGGGTA, the binding signal is -0.101 E-score.

On to AGAATGCG, for which the binding signal was -0.0301 E-score.

Take AGGTCTAC: the binding signal was -0.143 E-score.

AGCAATCC: the binding signal is 0.412 E-score.

Sequence AAGATTTC returned a binding signal of 0.477 E-score.

Regarding CACACCCG, the binding signal is -0.209 E-score.

Take ACAGGGAT: the binding signal is 0.0718 E-score.

AATCCCGG registered a binding signal of 0.326 E-score.

Consider ACTGGTTA, for which the binding signal is -0.109 E-score.

Consider AACATAGT, for which the binding signal is -0.101 E-score.

With AGGGCAAG, the binding signal is -0.208 E-score.

AATTAGGG returned a binding signal of 0.0441 E-score.

CAAGGAGA displayed a binding signal of 0.0857 E-score.

On to ACCGTCGC, for which the binding signal is -0.269 E-score.

Take ATTAGACG: the binding signal is -0.0148 E-score.

For AGCCGAGA, the binding signal was -0.0167 E-score.

Consider AGACCTCC, for which the binding signal is -0.27 E-score.
